The campaign covered roughly 46,000 compounds. About 60 (0.1%) were called active. Inconclusive results (about 3%) are left out. The call rests on the fitted dose curve; in most records, active means well fitted inhibition curve with a large enough effect; inconclusive means small, poorly fitted or top-dose-only effect; inactive means no such curve, though single readings can be large or run the other way. The list shows a part of the results.
Test: Primary qHTS assay for Inhibitors of ovarian cancer metastasis using an organotypic tumor microenvironment (TME) model. Further: nearly all actives have a fitted effect of over 65% in size.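 On activity change, negative = inhibition: plate controls were DMSO wells for no effect and tomatine positive control wells for full effect.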
Details: SKOV3ip1-GFP adhesion/invasion on 3D omental model, fluorescence; series mostly up to 45.8 µM; activity change, negative = inhibition: at the top concentration
Outline: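 Adhesion/invasion was scored as fixed GFP-labeled SKOV3ip1 cell counts (488/509 nm), normalized to DMSO and tomatine controls. Cancer cells in serum-free medium, with four compound doses (0.36-46 umol/L), sat 2 hr at RT then 16 hr at 37 C on a 48 hr fibroblast/mesothelial/ECM culture.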

Activity change, negative = inhibition, inactive:
CCOc1ccccc1C(=O)Nc1c(C(=O)Nc2ccc(F)cc2)oc2ccccc12 -9.88%
CCc1ccc(S(=O)(=O)c2cn(C)c3cc(N4CCC(C)CC4)c(F)cc3c2=O)cc1 -18.4%
CCOC(=O)c1ccc(NC(=O)c2c(NCc3cccs3)sc3c2CCCC3)cc1 0.163%
Cn1c(=O)n(C)c2cc(N3CCOCC3)c(NC(=O)c3ccccc3Br)cc21 2.11%
Cc1ccc(C(=O)Nc2nnc(S(=O)(=O)N3c4ccccc4CC3C)s2)cc1 (stereo not drawn) -5.11%
COc1ccc(NC(=O)c2ccco2)cc1NC(=O)COc1ccccc1 5.01%
CCOc1ccc(NC(=O)c2cnn3c2NC(c2cccc(OC)c2)=CC3c2ccccc2)cc1 (stereo not drawn) -0.328%
Cc1ccc(C2=NN(CC(=O)NCCC(C)C)C(=O)CC2)cc1 -9.7%
COc1ccc(OC(=O)c2nc(SCc3ccc(F)cc3)ncc2Cl)cc1 6.08%
O=c1c(S(=O)(=O)c2ccccc2)cn(Cc2cccc(F)c2)c2cc(N3CCOCC3)c(F)cc12 5.22%
CC(=O)Nc1ccc(NC(=O)CSc2nc3ccccc3nc2N2CCC(C)CC2)cc1 -13.7%
COc1cccc(CNC(=O)c2cc(S(=O)(=O)N3CCCCC3)cn2C)c1 -2.03%
COc1ccc(CNC(=O)CN2C(=O)CSc3ccc(S(=O)(=O)N4CCOCC4)cc32)c(OC)c1 9.77%
Cc1ccc(-n2ncc(C(=O)NCCc3c[nH]c4ccccc34)c2C2CCN(C(=O)OC(C)(C)C)CC2)cc1C -1.32%
COc1ccc(NC(=O)CCS(=O)(=O)c2ccc3nc(C)sc3c2)cc1Cl -2.06%
CCC(=O)Nc1ccc(CC)cc1-c1nc2ccccc2n(Cc2ccccc2)c1=O 4.32%
CC(NC(=O)CN(c1ccc(Cl)cc1Cl)S(=O)(=O)c1ccccc1)c1ccccc1 (stereo not drawn) -4.08%
O=C(Cn1c(-c2cccs2)cc2cc(Cl)ccc21)N1CCN(c2ccccc2F)CC1 4.41%
CNC(=O)c1c(NC(=O)/C=C/c2ccccc2Cl)sc2c1CCC2 -22.1%
Cc1ccccc1C(=O)N(Cc1nc(-c2ccc(Cl)cc2)no1)C(C)C -4.04%
CCn1c(=O)c2sccc2n2c(CCC(=O)N3CCN(c4ccc(C(C)=O)cc4)CC3)nnc12 -12.4%
CCOC(=O)C(C)NC(=O)C1CCN(c2ncnc3c2nc2n3CCCCC2)CC1 (stereo not drawn) 1.02%
COc1ccc(F)cc1S(=O)(=O)Nc1cccc(-c2ccc(N3CCCCCC3)nn2)c1 1.12%
CCOc1ccccc1NC(=O)Cn1c(=O)n(Cc2ccccc2)c(=O)c2cccnc21 0.319%
O=C(Cn1ccc2cc(S(=O)(=O)N3CCCCC3)ccc21)NCc1cccc(Cl)c1 5.82%
CC1CCC(NC(=O)c2cc3c(Cl)nc4ccccc4c3s2)CC1 (stereo not drawn) -5.14%
CC(C)N(Cc1ccccc1)C(=O)Cn1ncc2c([nH]c3ccccc32)c1=O 14.4%
CCc1nnc(NC(=O)C(=O)c2cc(C)n(-c3ccccc3)c2C)s1 2.01%
Cc1cccn2c(=O)cc(COc3cccc(NC(=O)COc4ccc(F)cc4)c3)nc12 1.07%
O=S(=O)(NCC(c1ccco1)N1CCOCC1)c1cc(F)ccc1F (stereo not drawn) 3.13%
Cc1cccc(NC(=O)CSc2c(C)cnc3c2c(=O)n(C)c(=O)n3C)c1C -2.87%
Cc1ccc(-c2nonc2NC(=O)c2ccc(F)cc2)cc1C -9.42%
Cc1cc(C)cc(NC(=O)C2CCCN(C(=O)c3cnn(-c4ccccc4)c3-n3cccc3)C2)c1 (stereo not drawn) 7.38%
CCC1CCCCN1CC(=O)Nc1cc(C)c2c(=O)oc3ccccc3c2n1 (stereo not drawn) 14.4%
O=C(c1cc2c(s1)-c1ccccc1OC2)N1CCN(c2ccccc2)CC1 -11.7%
Cc1cc(C(=O)N2CCN(c3cccc(Cl)c3)CC2)n(-c2ccccc2)n1 4.64%
CCCOc1ccc(C(=O)N(Cc2ccc(N(C)C)cc2)CC2CCCO2)cc1 (stereo not drawn) 0.445%
O=C(CCc1ccccc1)N(Cc1cccnc1)c1nc2c(F)cccc2s1 -10.4%
COc1cc(C(=O)NCC(c2ccco2)S(=O)(=O)c2ccccc2)cc(OC)c1OC (stereo not drawn) -4.37%
Cc1ccc(Nc2c(-c3ccc(O)cc3)nc3cccc(C)n23)cc1 -26.6%
Cc1ccc(NC(=O)Cc2csc(C)n2)c(C)c1 3.38%
CCCN(CCC)CCCNC(=O)Cn1ncc2c3ccccc3n(Cc3ccccc3)c2c1=O -1.76%
Cc1ccc(C(=O)Nc2ccc(OCc3cc(=O)n4c(C)csc4n3)cc2)cc1 0.615%
O=C(c1ccc2c(c1)N(Cc1ccccc1)C(=O)c1ccccc1S2(=O)=O)N1CCCCCC1 -9.91%
Cc1ccc(S(=O)(=O)c2c(Nc3cc(F)ccc3F)sc(C(=O)c3ccc(F)cc3)c2N)cc1 58.7%
CC(=O)Nc1nonc1-c1nnc(SCC(=O)Nc2cc(C)cc(C)c2)n1-c1ccccc1 -13.6%
CCN(CC)CCN(C(=O)c1ccco1)c1nc2ccc(Br)cc2s1 -4.35%
CCCOc1ccc(-c2nc(SC)[nH]c(=O)c2C#N)cc1OC -0.49%
Cc1ccc(C)c(Cn2c3ccccc3c3cnn(CC(=O)NCc4ccccc4)c(=O)c32)c1 -5.64%

outcome, inactive:
CCOC(=O)c1cc(OC(=O)c2ccc(C)cc2)n(-c2ccccc2)n1
Cc1ccccc1Cn1c2ccccc2c2cnn(CC(=O)NCCc3ccccc3)c(=O)c21
COc1cc(-c2noc(CCC(=O)Nc3cc(C)ccc3C)n2)cc(OC)c1OC
COc1ccc(NC(=O)C(Cc2ccccc2)n2cccc2)cc1OC (stereo not drawn)
Cc1ccc(OC(=O)CSc2nnc(-c3cccs3)o2)cc1
Cc1cc(S(=O)(=O)NCC(c2ccco2)S(=O)(=O)c2ccccc2)ccc1F (stereo not drawn)
Cc1cc(C)c(NC(=O)Cn2nnc(-c3ccccc3)n2)c(C)c1
O=C(CN1CCCN(Cc2ccccc2Cl)S1(=O)=O)NCc1ccccc1
O=C(CSc1nc2c([nH]c3ccccc32)c(=O)n1-c1ccc(Cl)cc1)N1CCOCC1
CC1=C(C(=O)Nc2ccccc2)C(CC(C)C)n2nc(SCc3ccccc3C)nc2N1 (stereo not drawn)
CCc1nn(C(CC)C(=O)NCc2ccc(F)cc2)c(=O)c2cc3occc3n12 (stereo not drawn)
Cc1nc(-c2ccc(Cl)cc2)sc1CCNC(=O)c1cccs1
Cc1cccc(NC(=O)CSc2nncn2C)c1
Cc1ccc(NC(=O)CSc2nc(-c3ccco3)nc3cc(=O)[nH]n23)cc1C
